From article PMC6919601, “Identification of Plasmodium dipeptidyl aminopeptidase allosteric inhibitors by high throughput screening” (PLoS ONE, 2019)
About 230 (0.21%) of roughly 110,000 compounds showed an effect of 50% or more. The list shows a part of the results.

Biological target: DPAP1 (Plasmodium falciparum, UniProt Q8IIJ9)
Test: primary screen, percent inhibition; read by cleavage of a fluorogenic dipeptide substrate; higher = more effect of the substance
Set-up: species or system P. falciparum D10 trophozoite lysates; single well
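Also: 30 min substrate incubation versus DMSO and 10 µM JCP410 controls.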

DPAP1, sequence (Q8IIJ9 whole entry, looked up): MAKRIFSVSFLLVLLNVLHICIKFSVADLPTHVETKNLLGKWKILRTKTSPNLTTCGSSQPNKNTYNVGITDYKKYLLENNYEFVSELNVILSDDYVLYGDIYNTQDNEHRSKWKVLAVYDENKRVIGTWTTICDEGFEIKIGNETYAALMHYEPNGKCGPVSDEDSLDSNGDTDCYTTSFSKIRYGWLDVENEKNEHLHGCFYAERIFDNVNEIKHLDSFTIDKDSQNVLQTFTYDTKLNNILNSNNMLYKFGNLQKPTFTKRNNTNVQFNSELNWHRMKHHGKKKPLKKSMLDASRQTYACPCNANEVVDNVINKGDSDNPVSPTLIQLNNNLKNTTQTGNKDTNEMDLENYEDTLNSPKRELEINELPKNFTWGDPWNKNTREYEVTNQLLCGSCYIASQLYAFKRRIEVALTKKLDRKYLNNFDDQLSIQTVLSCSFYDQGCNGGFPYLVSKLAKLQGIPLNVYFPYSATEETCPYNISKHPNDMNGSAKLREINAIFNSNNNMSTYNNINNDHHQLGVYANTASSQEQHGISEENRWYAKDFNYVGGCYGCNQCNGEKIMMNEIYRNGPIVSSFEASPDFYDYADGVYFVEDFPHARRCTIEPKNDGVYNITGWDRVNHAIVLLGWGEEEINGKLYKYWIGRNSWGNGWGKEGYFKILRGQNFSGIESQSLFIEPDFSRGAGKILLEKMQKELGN

Compound | % Inhibition @ 10 uM [%]
Cn1nc(C(=O)NCCCN2CCN(Cc3ccccc3)CC2)c2c1-c1ccccc1OC2 | 4.86
COC(=O)c1cccc(Oc2nc3c(c(=O)n(C)c(=O)n3C)n2C(C)C)c1 | -1.33
COc1ccc(CN2CCN(C3CCCC(C)C3)CC2)c(OC)c1 (centres unmarked) | 11.6
Cc1ccccc1-c1noc(-c2ccc(Br)cc2)n1 | -5.11
COc1ccccc1/C=C/CNc1ccc(F)c(Cl)c1 | 0.472
Cc1nc2c(-c3ccccc3)c(C)nn2c(C)c1CCC(=O)N1CCOCC1 | -4.1
CCOC(=O)c1c(C)[nH]c(C)c1S(=O)(=O)N1CCC(C(=O)Nc2cccc(C)n2)CC1 | -1.23
Cc1nn(CCCC(=O)NC(C)CCc2ccccc2)c(=O)c2cc3sccc3n12 (centres unmarked) | 3.4
CCOc1ccc(-c2nc3ccccc3c(C(=O)O)c2C)cc1 | -7.94
O=S(=O)(c1ccc2[nH]c3c(c2c1)CCCC3)N1CCN(C2CCCCC2)CC1 | -0.35
O=C1N=C(N2CCCCC2)S/C1=C\c1cccc(O)c1 | 0.661
c1ccc(-c2cc(NC3CCCC3)n3cnnc3n2)cc1 | 2.54
C[n+]1c(/C=C2\C=CC=CN2CCO)sc2ccccc21 | 5.3
Cc1ccc2c(NC(=O)C3CC3)c(C)ccc2n1 | -0.173
CN(C)CCN(C)Cc1ccc(Cl)c(Cl)c1 | 2.94
COCCNC(=S)N1CCc2cc(OC)c(OC)cc2C1COc1ccccc1OC (centres unmarked) | 2.06
CCOCCCNC(=O)Cn1ncc2c(=O)oc3ccccc3c21 | -1.03
Cc1cccc(CN2CCN(C(=O)c3cccnc3)CC2)c1 | -5.7
CCCCN(Cc1ccccc1)Cc1ccco1 | -3.57
Cn1cc(NC(=O)NCCc2ccsc2)c2ccccc2c1=O | 7.86
CCOC(=O)c1[nH]c2c([N+](=O)[O-])cc(OCC)cc2c1C | 6.83
COc1ccc(-n2c(S)nnc2CNC(=O)c2ccc(OC)cc2OC)cc1 | 20.8
O=C(NCc1ccccn1)c1cccs1 | 2.22
COc1cccc(NC(=O)C2CC(C)=C(C)CC2C(=O)O)c1 (centres unmarked) | -1.65
C1CCN(c2nc(N3CCCCC3)nc(N3CCCCC3)n2)CC1 | -1.76
CCCN1CCC(NCc2cccc(Br)c2)CC1 | -0.603

Compound | % Inhibition @ 10 uM [%]
Cc1ccc(C2=N/C(=C\c3ccccc3Cl)C(=O)O2)cc1 | -2.05
CCOc1ccc(N2C(=O)NC(=O)/C(=C\c3ccc(N(C)C)cc3)C2=O)cc1 | -0.0953
COc1ccccc1C(=O)Nc1nc(-c2ccc(S(=O)(=O)N3CCCC3)cc2)cs1 | 0.907
O=C(NCc1ccccc1F)c1ccccc1-c1ccccc1 | 0.0719
CC1CCCN(C(=O)COc2ccc(F)cc2)C1 (centres unmarked) | -5.6
O=C(c1ccc(Cl)cc1)N(Cc1ccccc1F)C1CCS(=O)(=O)C1 (centres unmarked) | -1.35
CCc1c(C)sc(NC(=O)c2ccc(Cl)cc2Cl)c1C(N)=O | -1.04
CN(c1ccc(C(=O)N2CCCCCC2)cc1)S(C)(=O)=O | -0.95
O=C(Cn1nc(Cc2ccncc2)c2ccccc2c1=O)NCCCN(Cc1ccco1)C1CCCC1 | 4.41
COc1ccc(CN2CCN(c3ccccc3F)CC2)cc1 | 3
Cc1c(Cl)cccc1-n1nc(C)c2c(C)cc(=O)n(CC(=O)NC(C)c3ccccc3)c21 (centres unmarked) | 3.16
CN1C(=O)C(=Cc2ccc(OCCOc3ccc(C(C)(C)C)cc3)cc2)C(=O)N(C)C1=O | 3.25
CCOC(=O)c1c(NC(=O)N2CC=C(c3c[nH]c4ccccc34)CC2)sc2c1CCCC2 | 1.81
Cc1cccc(-c2nc(CSCC(=O)NC3CCC(C)CC3)c(C)o2)c1 (centres unmarked) | 2.37
CCN(CC)C(=O)Cn1c2ccccc2c2nc3n(c(=O)c21)CCS3 | 1.32
COc1cc(CN2CCN(Cc3ccccc3Br)CC2)cc(OC)c1O | -5.93
CC1(C)Cc2nc3sc4c(NC5CCCCC5)ncnc4c3cc2CO1 | -2.65
CC1(C)CC2CC(C)(CN2C(=O)C23CCC(C)(C(=O)O2)C3(C)C)C1 (centres unmarked) | -3.96
CCN1CCN(CC(O)COc2c(C)cc(C)cc2C)CC1 (centres unmarked) | -4.39
CC1NCCn2cccc21 (centres unmarked) | -6.52
N=C1/C(=C\c2ccc(SCc3ccco3)o2)C(=O)N=C2SC(C(F)(F)F)=NN12 | -1.28
Cc1n[nH]c(C)c1CCCCOc1ccc(Cl)cc1 | -6.44
CCOc1ccccc1C(=O)N(Cc1ccc(OC)cc1)Cc1ccco1 | 3.88
O=C(O)C(Cc1ccccc1)/N=C/C=C(\O)C(F)(F)F (centres unmarked) | 5.98
Cc1ccc(C(C)C)c(Oc2nc3ccccn3c(=O)c2/C=C(\C#N)S(=O)(=O)c2ccccc2)c1 | -5.1
COC(=O)c1ccc(-n2nnnc2SCc2ccccc2OC)cc1 | -4.19

Compound | % Inhibition @ 10 uM [%]
COc1ccc(-c2noc(CN(C(=O)c3cccc(Br)c3)C(C)C)n2)cc1 | 2.5
CN1CCN(c2nc(NCC3CCCO3)c3ccccc3n2)CC1 (centres unmarked) | -5.29
O=C(NC1CCCCCCC1)c1ccc(Br)o1 | -0.294
COc1cccc2sc(N(CCCN(C)C)C(=O)c3cccc(C)c3)nc12 | -0.285
CCCOc1ccccc1/C=C1\SC(N2CCN(C(C)=O)CC2)=NC1=O | -3.06
COc1ccc(CNC(=O)CN(c2cc(C)ccc2OC)S(C)(=O)=O)cc1 | -2.82
CN(c1ccc(C(=O)Nc2ccccc2-c2ccccc2)cc1)S(C)(=O)=O | 3.38
Cc1ccc(-c2cc(C(=O)N3CCN(c4ncccn4)CC3)c3ccccc3n2)o1 | 3.48
O=S(=O)(O)c1ccc2nc(O)c(O)nc2c1 | -0.458
CCC(O)C#CC(C)(O)CCC=C(C)C (centres unmarked) | 3.25
O=C(NCCO)/C(=C/c1ccco1)NC(=O)c1cccc(Br)c1 | -4.72
COc1ccc(NCC(O)Cn2cnc3c2c(=O)n(C)c(=O)n3C)cc1 (centres unmarked) | 4.49
O=C(CNS(=O)(=O)c1ccc(Br)cc1)NCc1ccncc1 | 6.71
CCCN1C(=O)c2oc3cc(C)cc(C)c3c(=O)c2C1c1cccc(O)c1 (centres unmarked) | 0.00706
c1ccc(OCCN2CCOCC2)cc1 | -4.87
COc1ccc(CNC(=O)Cn2nc(C(F)(F)F)c3c2CCC3)cc1 | 4.08
COC(=O)c1cnn2c(O)c3c(nc12)C(=O)N(Cc1ccccc1)C3 | -0.256
Cc1ccccc1OCC(=O)Nc1ccc(Cl)c(Cl)c1 | -0.872
CCOCC(=O)NC1CCCc2ccccc21 (centres unmarked) | 1.17
Cc1nnc(SCC(=O)NC2CCCC2)c2nn(-c3ccccc3)c(C)c12 | 4.88
CCOc1ccc(NC(=O)CSC(=O)c2ccccc2)cc1 | -1.06
O=C(NCCN1CCCC1)c1ccc(Cl)cc1 | 0.5
O=C(CSc1ccccc1)Nc1cccc2c1C(=O)N(c1ccccc1)C2=O | 2.37
CCOC(=O)c1c(C)[nH]c2cc(Br)c(O)cc12 | -2.51
O=C(NC1CCCCCCC1)C(Cc1ccccc1)NS(=O)(=O)c1cccc2cccnc12 (centres unmarked) | 2.6
C#CCn1cc(/C=C2\SC(=O)N(C)C2=O)c2ccccc21 | -3.06

Compound | % Inhibition @ 10 uM [%]
CCc1ccc(OCC(=O)Nc2ccc(N3CCN(C)CC3)cc2)cc1 | -7.15
CCCCNC(=O)c1cc2nc(-c3ccccc3)cc(C)n2n1 | -5.04
O=C1CC(c2ccccc2)CC(=O)C1=CNCC1CCCO1 (centres unmarked) | -6.59
CCN(CC)CCCNC(=O)Nc1cnc2ccccn2c1=O | -3.08
COc1ccc(/C=C/C2=NN(c3ccccc3)C(c3ccc(OC)cc3)C2)cc1 (centres unmarked) | 0.968
Cc1cccc(C)c1NC(=O)c1cc(F)c(Cl)nc1Cl | 6.69
Cc1ccccc1CN1CCN(C/C=C/c2ccccc2)CC1 | -5.57
CCN1CCN(Cc2cccc(F)c2)CC1 | -0.192
O=C(c1ccc(Cl)cc1Cl)N1CCN(c2ccc(Cl)cc2)CC1 | 5.12
Cc1ccc(SC(C)C(=O)Nc2ccccc2C(=O)NC(C)C)cc1 (centres unmarked) | -5.13
CS(=O)(=O)N(CC(=O)NCc1ccc(Cl)cc1)c1cccc(F)c1 | -0.48
O=C(/C=C/c1ccccc1)Nc1c(-c2ccccc2)nc2ccccn12 | -3.21
Cc1cccc(C)c1-n1ncc(C(=O)NC2CCCC2)c1C1CCNCC1 | -9.36
CC(C)CC(=O)Nc1ccc(N2CCN(S(C)(=O)=O)CC2)cc1 | -6.02
C/C(=N\N=C(/C)c1nnn(-c2nonc2N)c1C)c1ccc(O)cc1 | 1.76
CCN(CC)CCNC(=O)c1c(C)oc2c1C(=O)c1ccccc1C2=O | 0.0289
NC(=O)NC(=O)c1nc2ccccc2nc1O | 0.634
CN(C)C(=O)c1ccccc1-c1ccccc1C(=O)O | -9.55
COc1ccc(NC(=O)c2cc(C)c(C)o2)cc1 | 4.98
COc1ccc(CCNC(=O)c2cc3cccc4c3n2CCS4)cc1OC | -1.83
Cc1[nH]c2ccccc2c1/C=C1\SC(=S)NC1=O | 2.4
COc1ccccc1-n1c(C)cc(C(=O)O)c1C | 5.3
CCSc1ncc(Cl)c(C(=O)NCc2ccc(OC)cc2)n1 | 2.19
CC1=C(C(=O)Nc2ccccc2)C(c2cccc3ccccc23)NC(S)=N1 (centres unmarked) | -3.44
Cc1ccc2c(c1)c1c3n2CC(=O)N(Cc2ccccc2)C3CCC1 (centres unmarked) | -4.96
CC(C)NC(=O)C(=O)NCc1ccccn1 | -0.233
